{"source": "the RNAGym collection of RNA variant scans (doi:10.1073/pnas.2313332121)", "parents": {"B1": {"name": "TPR 5TU (parent)", "chain": "GGAUCUUCUCGAUCUAACAAAAAAGACAAAUCUGCCACAAAGCUUGAGAGCAUCUUCGGAUGCAGAGGCGGCAGCCUUCGGUGGCGCGAUAGCGCCAACGUUCUCAACUAUGACACGCAAAACGCGUGCUCCGUUGAAUGGAGUUUAUCAUG"}}, "note": "Variants at the floor of the assay are shown more often than the library holds them.", "data": [{"variants_of": "B1", "assay": "polymerase ribozyme fitness, log enrichment relative to wild type (log ratio); higher = more active; in vitro selection for triplet polymerase activity", "summary_of_the_method": "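Fitness compares each genotype's enrichment to that of the wild type on a logarithmic scale, averaging replicates with inverse-variance weights. The logarithm is base 2. Enrichment came from Illumina sequencing of input and output libraries after one triplicate round of in vitro selection, which included frozen incubation at −7 °C, of PCR-built, transcribed mutant libraries of each subunit of a heterodimeric triplet polymerase ribozyme. Only genotypes with ≥10 input reads and ≥1 read per output were kept.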", "values": [{"variant": "U4G U7G U13G C43A C54U U78G G94C", "polymerase ribozyme fitness (log ratio)": "≤ -4.2"}, {"variant": "C5G C75U G86C U151A", "polymerase ribozyme fitness (log ratio)": "≤ -4.2"}, {"variant": "A3U U6G C57G C87U C149G", "polymerase ribozyme fitness (log ratio)": "≤ -4.2"}, {"variant": "U4C G42C C85G G92A G94A U101A A115U A142C U148G", "polymerase ribozyme fitness (log ratio)": "≤ -4.2"}, {"variant": "C5G G25C U56A C79A U90C C99U C125U G143U", "polymerase ribozyme fitness (log ratio)": "≤ -4.2"}, {"variant": "C5G C36U C96G", "polymerase ribozyme fitness (log ratio)": -2.51}, {"variant": "U4C C54G C87U C95G G143A U146G", "polymerase ribozyme fitness (log ratio)": "≤ -4.2"}, {"variant": "A3U U53A", "polymerase ribozyme fitness (log ratio)": -1.77}, {"variant": "C5A U9G A73G C87U A120U C123U A147G", "polymerase ribozyme fitness (log ratio)": -3.95}, {"variant": "A3U A47C C57A", "polymerase ribozyme fitness (log ratio)": -0.307}, {"variant": "A3U U6A A39G C96G G124U G141A", "polymerase ribozyme fitness (log ratio)": -3.93}, {"variant": "C5A G86C G92U", "polymerase ribozyme fitness (log ratio)": -3.93}, {"variant": "U4C A30U C72G C93G G140A", "polymerase ribozyme fitness (log ratio)": "≤ -4.2"}, {"variant": "U4G G25A U45G C87A C99A C103U C105G U139G G143A", "polymerase ribozyme fitness (log ratio)": -4.11}, {"variant": "U4G U9G G59C U82G C87G C96A", "polymerase ribozyme fitness (log ratio)": "≤ -4.2"}, {"variant": "U4G C14G C93G", "polymerase ribozyme fitness (log ratio)": "≤ -4.2"}, {"variant": "C5G A17G", "polymerase ribozyme fitness (log ratio)": -0.0409}, {"variant": "U4A G25U C35U C87A C93G", "polymerase ribozyme fitness (log ratio)": "≤ -4.2"}, {"variant": "U4A A29G U61A G94U G126U G133U U151G", "polymerase ribozyme fitness (log ratio)": "≤ -4.2"}, {"variant": "C5A U6A G94U C123U U148G", "polymerase ribozyme fitness (log ratio)": "≤ -4.2"}, {"variant": "U4C A26U C43A U55A A73G C93U U134A U139G U146A U148A", "polymerase ribozyme fitness (log ratio)": "≤ -4.2"}, {"variant": "A3U A40C U45A G62A G136C", "polymerase ribozyme fitness (log ratio)": "≤ -4.2"}, {"variant": "U4A G48C G50U G58U G83C C95G U101G G128U", "polymerase ribozyme fitness (log ratio)": "≤ -4.2"}, {"variant": "C5G C18U A30U U61C C85A", "polymerase ribozyme fitness (log ratio)": "≤ -4.2"}, {"variant": "C5A G11U A73G U82A G94C G143A", "polymerase ribozyme fitness (log ratio)": "≤ -4.2"}, {"variant": "C5G A60G G68C C85A A106U A122U G128A A147U", "polymerase ribozyme fitness (log ratio)": "≤ -4.2"}, {"variant": "C5A A20U A21U A107G U145C C149U", "polymerase ribozyme fitness (log ratio)": "≤ -4.2"}, {"variant": "C5A G81A", "polymerase ribozyme fitness (log ratio)": 0.566}, {"variant": "C5G C10G G42C C54U U56A U82C C85G C116U", "polymerase ribozyme fitness (log ratio)": "≤ -4.2"}, {"variant": "U4G C75A C76U C95U C132G", "polymerase ribozyme fitness (log ratio)": "≤ -4.2"}, {"variant": "C5A C85U", "polymerase ribozyme fitness (log ratio)": -0.371}, {"variant": "C5G C43U C54U U61A A64C G84U U127A C131G A142G", "polymerase ribozyme fitness (log ratio)": "≤ -4.2"}, {"variant": "C5A G34A A41C U82C C87G A91C C93U", "polymerase ribozyme fitness (log ratio)": "≤ -4.2"}, {"variant": "C5A C87U C129A", "polymerase ribozyme fitness (log ratio)": -3.51}, {"variant": "U4G U15G A20G A39C C85G A107G", "polymerase ribozyme fitness (log ratio)": "≤ -4.2"}, {"variant": "C5G A17G A20U C57U A66U G86C A107G C108A", "polymerase ribozyme fitness (log ratio)": "≤ -4.2"}, {"variant": "U4A C79G C93U U146C A150C", "polymerase ribozyme fitness (log ratio)": "≤ -4.2"}, {"variant": "C5G C14G C96A", "polymerase ribozyme fitness (log ratio)": -2.31}, {"variant": "U4C C85U U101G A147C", "polymerase ribozyme fitness (log ratio)": -0.704}, {"variant": "C5A A20G C85U C93U A97U", "polymerase ribozyme fitness (log ratio)": -3.46}, {"variant": "C5A A20U C85G C103G C123U G141C", "polymerase ribozyme fitness (log ratio)": "≤ -4.2"}, {"variant": "U4C C18G G46A G65C C85U A89G U109G A138U G141A", "polymerase ribozyme fitness (log ratio)": "≤ -4.2"}, {"variant": "C5A A40G C87U", "polymerase ribozyme fitness (log ratio)": -2.81}, {"variant": "U4A C51U G94C A98U", "polymerase ribozyme fitness (log ratio)": -1.63}, {"variant": "U4A C5G C69U C79U C85U G94C G117A G128U", "polymerase ribozyme fitness (log ratio)": "≤ -4.2"}, {"variant": "U4G A41U A91C A97U", "polymerase ribozyme fitness (log ratio)": "≤ -4.2"}, {"variant": "U4G G84A U109A A115C C123A", "polymerase ribozyme fitness (log ratio)": -2.01}, {"variant": "U4G A12G U78A A91U G124A A138G", "polymerase ribozyme fitness (log ratio)": "≤ -4.2"}, {"variant": "C5A A17G C36A U53G U56A A91G", "polymerase ribozyme fitness (log ratio)": "≤ -4.2"}, {"variant": "U4G A73U C87A C99U", "polymerase ribozyme fitness (log ratio)": "≤ -4.2"}, {"variant": "U4G A40C A60U G70A C103A A107G", "polymerase ribozyme fitness (log ratio)": "≤ -4.2"}, {"variant": "A3U C10A C14U C85G A97U", "polymerase ribozyme fitness (log ratio)": "≤ -4.2"}, {"variant": "A3U U53G G68U C85U C108U C118A G124A", "polymerase ribozyme fitness (log ratio)": "≤ -4.2"}, {"variant": "U4G C51U G94A A106U U109G", "polymerase ribozyme fitness (log ratio)": "≤ -4.2"}, {"variant": "U4C C35A C69U G74A G94C A115C U134G", "polymerase ribozyme fitness (log ratio)": "≤ -4.2"}, {"variant": "C5A A12G A40U A47C C85G C96A U104A U151G", "polymerase ribozyme fitness (log ratio)": "≤ -4.2"}, {"variant": "C5A U53A C54U U77A C93U G133C G140C", "polymerase ribozyme fitness (log ratio)": "≤ -4.2"}, {"variant": "C5A C8U A19U G50C C76A C93U C105U C116G C149U", "polymerase ribozyme fitness (log ratio)": "≤ -4.2"}, {"variant": "C5G G50C C96U C103G C132A C149G", "polymerase ribozyme fitness (log ratio)": "≤ -4.2"}, {"variant": "C5G A41U G59C G84A", "polymerase ribozyme fitness (log ratio)": -2.99}, {"variant": "U4G A21G A52G G141A", "polymerase ribozyme fitness (log ratio)": -2.63}, {"variant": "C5A C32G C57U U61A U82C G84C C103G U127A", "polymerase ribozyme fitness (log ratio)": "≤ -4.2"}, {"variant": "U4G U31G G50C G68A C75A G86U C95U U101A", "polymerase ribozyme fitness (log ratio)": "≤ -4.2"}, {"variant": "C5A C69A G84A U104G C125U G126A A142C", "polymerase ribozyme fitness (log ratio)": "≤ -4.2"}, {"variant": "C5A G92A U104G A120U C123A U130G", "polymerase ribozyme fitness (log ratio)": "≤ -4.2"}, {"variant": "C5A A12U C32G U33G G94C U148G A150U", "polymerase ribozyme fitness (log ratio)": "≤ -4.2"}, {"variant": "U4G A91U A106G", "polymerase ribozyme fitness (log ratio)": "≤ -4.2"}, {"variant": "A3U U82C U101A", "polymerase ribozyme fitness (log ratio)": -0.128}, {"variant": "C5G C85U A120U G152U", "polymerase ribozyme fitness (log ratio)": "≤ -4.2"}, {"variant": "C5G A19G C32A G59C G62C C72A G81U C95A C114U", "polymerase ribozyme fitness (log ratio)": "≤ -4.2"}, {"variant": "U4G G59U U78G C96A G117C", "polymerase ribozyme fitness (log ratio)": "≤ -4.2"}, {"variant": "U4G G11U A20U A28U U56A C85U C99U U151A", "polymerase ribozyme fitness (log ratio)": "≤ -4.2"}, {"variant": "C5A A12C G42A G68C C79A G83A C108G", "polymerase ribozyme fitness (log ratio)": "≤ -4.2"}, {"variant": "A3U C8G C10U U31A U56G A73G C76A C93A A119C G140A", "polymerase ribozyme fitness (log ratio)": "≤ -4.2"}, {"variant": "C5G C54G G84U A107U U146A", "polymerase ribozyme fitness (log ratio)": "≤ -4.2"}, {"variant": "U4C C69A A73C C79A G81U G141U", "polymerase ribozyme fitness (log ratio)": "≤ -4.2"}, {"variant": "C5A A23U C36U U82A U90G G100U", "polymerase ribozyme fitness (log ratio)": "≤ -4.2"}, {"variant": "A3U C18U A24U G48U A73G C85U U104G", "polymerase ribozyme fitness (log ratio)": "≤ -4.2"}, {"variant": "U4A A24G G34C A39U C85G C105A A113U", "polymerase ribozyme fitness (log ratio)": "≤ -4.2"}, {"variant": "U4G A47U G58C C69U G86A C105U", "polymerase ribozyme fitness (log ratio)": "≤ -4.2"}, {"variant": "U4G U53C G94A U130G", "polymerase ribozyme fitness (log ratio)": "≤ -4.2"}, {"variant": "U4C C18G C32U A52C G59U A91U", "polymerase ribozyme fitness (log ratio)": "≤ -4.2"}, {"variant": "U4A C5G G58A A73U C75U C85A G100A C105G U145A", "polymerase ribozyme fitness (log ratio)": "≤ -4.2"}]}]}
